Screen size: about 310,000 compounds; about 14,000 (4.5%) showed an effect of 50% or more. Effects have a minus sign here. Some of the results follow.
The molecules below were run against human ether-à-go-go-related gene (hERG) potassium channel (human, UniProt Q12809) (assay: primary screen, population patch clamp on CHO cells stably expressing hERG).
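Note: peak tail current of the secondary pulse compared with the same well before compound.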

human ether-à-go-go-related gene (hERG) potassium channel, sequence (Q12809 whole entry, looked up): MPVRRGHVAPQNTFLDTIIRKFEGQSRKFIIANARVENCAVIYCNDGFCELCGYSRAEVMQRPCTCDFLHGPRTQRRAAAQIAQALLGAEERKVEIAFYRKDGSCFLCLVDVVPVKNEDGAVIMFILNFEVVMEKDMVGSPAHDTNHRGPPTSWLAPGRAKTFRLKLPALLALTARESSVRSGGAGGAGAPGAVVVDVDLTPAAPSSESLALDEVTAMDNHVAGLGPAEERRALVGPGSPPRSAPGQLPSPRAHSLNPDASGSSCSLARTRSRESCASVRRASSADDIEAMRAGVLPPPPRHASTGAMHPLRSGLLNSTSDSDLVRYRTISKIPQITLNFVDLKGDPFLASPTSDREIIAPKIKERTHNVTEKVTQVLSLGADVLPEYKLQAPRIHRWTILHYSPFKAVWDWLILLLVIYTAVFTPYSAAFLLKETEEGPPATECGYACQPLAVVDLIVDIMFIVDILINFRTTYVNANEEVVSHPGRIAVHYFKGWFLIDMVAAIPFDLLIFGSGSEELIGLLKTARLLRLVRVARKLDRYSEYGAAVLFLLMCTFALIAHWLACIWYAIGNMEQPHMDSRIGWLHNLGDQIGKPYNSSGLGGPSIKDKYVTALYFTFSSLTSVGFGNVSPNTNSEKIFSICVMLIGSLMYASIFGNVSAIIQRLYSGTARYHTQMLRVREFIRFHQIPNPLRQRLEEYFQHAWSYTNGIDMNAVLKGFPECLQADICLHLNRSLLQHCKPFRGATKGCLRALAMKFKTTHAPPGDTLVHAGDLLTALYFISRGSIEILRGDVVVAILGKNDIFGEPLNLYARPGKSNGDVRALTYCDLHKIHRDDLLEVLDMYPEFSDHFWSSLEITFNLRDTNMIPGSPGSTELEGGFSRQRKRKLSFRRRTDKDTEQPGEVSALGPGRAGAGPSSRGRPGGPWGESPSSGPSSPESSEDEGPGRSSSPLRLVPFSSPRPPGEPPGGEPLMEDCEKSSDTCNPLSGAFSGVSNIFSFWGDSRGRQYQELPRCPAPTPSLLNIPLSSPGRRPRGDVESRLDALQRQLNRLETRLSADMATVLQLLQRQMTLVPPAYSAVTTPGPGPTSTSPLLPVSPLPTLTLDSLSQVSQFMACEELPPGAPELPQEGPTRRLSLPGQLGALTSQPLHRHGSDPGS

SMILES	hERG current change (%, negative = inhibition) at 10uM
CCOC(=O)Cc1c(C)nc2c(-c3ccccc3OC)c(C)nn2c1C	-22.7%
CCN(C(=O)COC(=O)c1cccnc1SC)C1CCS(=O)(=O)C1 (stereo not shown)	11.7%
O=C(/C=C/c1ccccc1[N+](=O)[O-])c1ccccc1Br	7.57%
O=C(NCCc1ccccc1)c1ccc(-n2cnnn2)cc1	-4.78%
COc1ccc(CN2C3CCCC2CC(NC(=O)Nc2cccc(C)c2)C3)cc1 (stereo not shown)	-75.3%
CC1CN(C(=O)COC(=O)c2nn(-c3ccccc3)c(=O)c3ccccc23)CC(C)O1 (stereo not shown)	9.9%
COC(=O)Nc1ccc(S(=O)(=O)N2CCCC(C(=O)NC3CCS(=O)(=O)C3)C2)cc1 (stereo not shown)	8.07%
C/C(=N\NC(=O)c1ccc(C)cc1)c1c(C)[nH]n(-c2ccccc2)c1=O	14.2%
O=C(Cn1c(C(=O)NCCCN2CCOCC2)cc2sccc21)c1ccccc1	-16.5%
O=C(Cn1c(-c2cncs2)nc2ccccc21)NC1CCCC1	-13.2%
COCCn1c(C)c(C(=O)O)sc1=S	-4.77%
CNC(=S)NC1CC2CCCC(C1)N2Cc1ccccc1OC (stereo not shown)	-10.1%
COc1cc(C(C(=O)NC(C)(C)C)N(Cc2ccc3c(c2)OCO3)C(=O)c2cnccn2)cc(OC)c1OC (stereo not shown)	-1.73%
CS(=O)(=O)N(CC(O)Cn1c2ccccc2c2ccccc21)c1ccccc1 (stereo not shown)	6.78%
Cc1sc(NC(=O)CCCC(=O)O)c(C#N)c1C	5.89%
CCC(=Nc1ccc(OC)cc1OC)c1c(O)[nH]c(=O)[nH]c1=O	0.405%
COc1ccccc1OCCC(=O)Nc1cccc(S(=O)(=O)N2CCCCC2)c1	-19.2%
O=C1N(c2ccccc2)C2CS(=O)(=O)CC2N1c1ccc(Br)cc1 (stereo not shown)	-29.3%
CC1CCCN(C(=O)COC(=O)Cc2c(F)cccc2Cl)C1 (stereo not shown)	4.8%
CON(C)S(=O)(=O)c1ccc2c(c1)NC(=O)C1CCCN21 (stereo not shown)	-1.88%
Cc1ccc(C(C(=O)NC2CCCC2)N(Cc2ccco2)C(=O)CCC(=O)Nc2cc(C)on2)cc1 (stereo not shown)	-29.5%
CC12CC(O)C3c4ccc(O)cc4CCC3C1CCC2=O (stereo not shown)	13.7%
O=C(Nc1ccccc1)c1ccc(NCCN2C(=O)CCC2=O)c([N+](=O)[O-])c1	10.9%

SMILES	hERG current change (%, negative = inhibition) at 10uM
CNC(=O)Oc1ccc2c(c1)[C@]1(C)CCN(C)C1N2C.O=S(=O)(O)O (stereo partly shown)	0.0699%
Cc1ccccc1/C=N\NC(=O)c1csnn1	3.01%
Cc1ccc(NC(=O)CSc2nnc([C@@H](N)Cc3c[nH]c4ccccc34)o2)c(C)c1.Cl	-13.2%
CC(=O)C1=C(c2ccccc2)NC(=O)NC1c1ccc2c(c1)OCO2.CC(=O)O (stereo not shown)	0.994%
CCn1c(C(=O)O)c(CC(=O)Nc2ccc(Br)cc2C)c2ccccc21	12.7%
CCCNC(=O)COc1coc(CN2CCN(c3ccc(F)cc3)CC2)cc1=O	2.45%
CCCCN(CC)c1nc(N)c2c(N)nc(OCC)cc2c1C#N	20.2%
O=C(C1CC1)N1CCc2cc(Br)cc(S(=O)(=O)NCC3COc4ccccc4O3)c21 (stereo not shown)	-17%
COC(=O)CSc1nc2ccc(N)cc2s1	15.2%
Cc1ccccc1OCCC(=O)Nc1cccc(S(=O)(=O)Nc2ccccc2Cl)c1	-5.41%
Cn1nc(C(F)(F)F)c(CO)c1Sc1ccc(F)cc1	15.6%
O=C1CC(c2ccccc2)CC(O)=C1C=NCC1CCCO1 (stereo not shown)	2.77%
CC(=O)N1CCN(CCN=CC2=C(O)CC(c3ccc(Cl)cc3)CC2=O)CC1 (stereo not shown)	-15.7%
CCO.Cc1nn(-c2ccccc2)c(Cl)c1C1C(C#N)=C(N)Oc2c1c(C)nn2-c1ccccc1 (stereo not shown)	-5.77%
Cn1c(=O)[nH]c(=O)c2c1nc(Br)n2CCC(=O)c1ccccc1	-12.3%
CCCOc1ccc(-c2c(C(=O)N/N=C/c3ccco3)nnn2-c2nonc2N)cc1	19.5%
O=c1ccc2cc(S(=O)(=O)N3CCN(c4cc(Cl)ccc4Cl)CC3)ccc2o1	-20.7%
CCn1c(-c2cc(Cl)ccc2OC)n[nH]c1=S	2.07%
CCCCOC(=O)C1=C(N)OC2=C(C(=O)CCC2)[C@]12C(=O)Nc1ccccc12	5.12%
Cc1ccc(Cn2ccc(NC(=O)c3noc4c3CCCC4)n2)cc1	-13.3%
Cc1ccc(CN2CCN(/N=C/c3cccnc3)CC2)cc1	-27.9%
N#Cc1nc(-c2ccccc2F)oc1NCc1cccc2c1OCO2	-24.9%
Cc1ccc(-n2nc3c(c2NC(=O)c2cccs2)CS(=O)(=O)C3)c(C)c1	-4.26%

SMILES	hERG current change (%, negative = inhibition) at 10uM
CC1CCCCN1C(=O)COC(=O)c1cc(-c2cccs2)nn1-c1ccccc1 (stereo not shown)	0.387%
COCCCNC(=O)CN(c1cc(Cl)ccc1OC)S(C)(=O)=O	17.4%
CC(CN1CCC(O)CC1)c1ccccc1 (stereo not shown)	10.6%
O=S(=O)(Nc1ccccc1O)c1ccc(Cl)nc1	19.1%
CC(C)c1ccc(-c2c(C#N)c(N)nc3c2CCCCC3)cc1	10.8%
C=CCNc1ncnc2ccccc12	22.5%
Cc1ccc2c(C)cc[n+](CCCS(=O)(=O)[O-])c2c1	-16.8%
O=C(CN1CCN(Cc2ccccc2)CC1)Nc1nc2ccccc2s1	-68.2%
O=C(CSc1nnc(C2COc3ccccc3O2)o1)N1CCCC1 (stereo not shown)	15.9%
COc1cc(C(=O)OCCCOC(=O)c2cc(OC)c(OC)c(OC)c2)cc(OC)c1OC	0.241%
O=C(CCNS(=O)(=O)c1ccc(Cl)cc1)NCc1cccnc1	5.49%
N#Cc1ccc(/C=N/NC(=O)c2cccc(S(=O)(=O)N3CCOCC3)c2)cc1	13.3%
CC(NC(=O)C1CCCN(C(=O)N(C)C)C1)c1ccccc1 (stereo not shown)	4.5%
CCn1c(C)nnc1SCC(=O)Nc1ccc2c(c1)OCCO2	2.36%
CC(c1ccccc1)N1CCn2c(nc3cc(NS(C)(=O)=O)ccc32)C1 (stereo not shown)	-15.6%
Cc1ccc(C)c(-c2nnc(NC(=O)Cc3ccc(F)cc3)o2)c1	19.8%
Cc1cccc(C)c1N(CC(=O)NCc1ccc(F)cc1)C(=O)c1csnn1	-3.82%
CN(Cc1cccnc1)C(=O)c1ccc2nc(Cc3ccccc3F)oc2c1	-14.8%
Cc1nc2sc(C(c3ccc(Cl)cc3)N3CCOCC3)c(O)n2n1 (stereo not shown)	-15.5%
CCc1ccc(OC(=O)c2ccn(CC)n2)cc1	-0.408%
Cc1oc2cc3oc(=O)c(CC(=O)NCCCC(=O)O)c(C)c3cc2c1C	27.8%
CCn1c(SCc2nc(N)nc(N3CCCCC3)n2)nc2c1c(=O)n(C)c(=O)n2C	-7.16%
COCCCNC(=S)NNC(=O)c1cc(Cl)c(O)c(Cl)c1	2.52%

SMILES	hERG current change (%, negative = inhibition) at 10uM
C=C(Cl)COc1cc(C)cc2oc(=O)cc(CC)c12	8.53%
COCC(=O)N1CCC(Oc2ccc(C(=O)NCc3cnc(C)cn3)cc2)CC1	14.8%
COc1ccc(NS(=O)(=O)c2cccc(C(=O)Nc3ccccc3C(=O)O)c2)cc1	-3.84%
Cn1c(=O)cc(Nc2ccccc2)[nH]c1=O	41.9%
CCc1ccc(CNCCNCC(C)O)cc1.Cl (stereo not shown)	-0.67%
COc1cc(S(=O)(=O)NC2CCCCC2)ccc1F	-0.27%
CCC(C(=O)OCC(=O)c1ccc(OC)cc1OC)c1ccccc1 (stereo not shown)	-9.78%
COc1ccc(NC(=O)CSCc2ccccc2C)cc1	14.5%
CCOCCCNCc1c(Cl)cccc1Cl	-0.212%
O=c1c2ccccc2nnn1CSc1nc2sc3c(c2c(=O)n1CC1CCCO1)CCC3 (stereo not shown)	-3.27%
CS(=O)(=O)c1ccc(C(=O)N(Cc2ccccc2)c2ccccc2)cc1	19.6%
CC(=O)C1=C(O)C(=O)N(c2ccccn2)C1c1ccc(Cl)cc1 (stereo not shown)	15.8%
CC(=O)Nc1cccc(OCc2cnc(Cl)s2)c1	11.4%
CCOc1cc(/C=N/Nc2ncc(C)c(=O)[nH]2)ccc1O	23.2%
COc1ccc(Cc2nn3c(-c4ccccc4OC)nnc3s2)cc1	-29%
O=C(c1ccc(S(=O)(=O)N2CCCC2)cc1)N1CCCc2ccccc21	-15.3%
Cc1sc(-c2ccccn2)nc1OC(=O)c1ccc(Cl)c(Cl)c1	6.24%
CN(C(=O)CSc1ncnc2sc3c(c12)CCC3)C1CCS(=O)(=O)C1 (stereo not shown)	-11.5%
CCOc1ccc(S(=O)(=O)NCCC(=O)NCC(C)(C)N2CCOCC2)cc1	4.75%
O=C(CN1CCOCC1)NCCNS(=O)(=O)c1ccccc1	-2.72%
O=C(/C=C/c1ccc(Cl)cc1)c1ccc([N+](=O)[O-])o1	13.8%
CCOC(=O)c1cnc2nc(C)nn2c1N	-13.1%

— article PMC4336329 (PLoS ONE, 2015)
